# Data: PubChem BioAssay AID588855 (National Center for Advancing Translational Sciences (NCATS), 2011)
# Out of some 410,000 compounds screened, about 5,000 (1.2%) were called active. Inconclusive means that the source gave no clear call. Such entries were picked first, then a sample of the others. The call rests on the fitted dose curve; in most records, active means well fitted inhibition curve with a large enough effect; inconclusive means small, poorly fitted or top-dose-only effect; inactive means no such curve, though single readings can be large or run the other way. Where the call is inconclusive, the potency comes from a doubtful curve fit.
# Assay: qHTS for Inhibitors of TGF-b; further: nearly all actives have a fitted effect of over 65% in size
# Conditions: HepG2 CAGA-GFP TGF-b/SMAD3 reporter, GFP fluorescence, 18 h, TGF-beta stimulated, 500 pg/mL final; series mostly up to 46.1 µM
# Summary of the method: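 HEPG2 CAGA-GFP reporter cells (1000/well, DMEM with 1% FBS) received compounds, then recombinant TGF-beta at 500 pg/mL final for 18 hours at 37 degrees C. Per-cell GFP summed per well was normalised to unstimulated and stimulated DMSO controls before curve fitting.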
# Potency means the concentration at half of the fitted maximal effect; tags describe the fitted curve by direction and shape.
row,Compound,Potency
1,CS(=O)(=O)Nc1ccc(C2=NN(C(=O)C3CCCCC3)C(c3cccs3)C2)cc1 (centres undefined),inactive
2,COc1ccc(-c2ccc3c(c2)C2CC3CCN2C(=O)OCc2ccccc2)cc1 (centres undefined),inactive
3,COc1ccc(OCCCN(C)Cc2ccccc2)cc1,inactive
4,COc1cccc(C(=O)C2CCCN(C(=O)c3ccc(C#CC(C)(C)O)cc3)C2)c1 (centres undefined),"inconclusive: 35.5 µM [inhibitor, single point]"
5,O=C(COC(=O)c1cccc(F)c1)Nc1ccc2c(c1)OCCO2,inactive
6,CN(C)CC/C=C1\c2ccc(F)cc2Sc2cc(F)c(Cl)cc21,"inconclusive: 35.5 µM [inhibitor, single point]"
7,Cc1ccc(Sc2ccc(CN3CCCC3)cc2[N+](=O)[O-])cc1,"inconclusive: 3.98 µM [inhibitor, partial curve, poor fit]"
8,Cc1ccc(-c2nc(C)c(CCNS(=O)(=O)c3ccccc3F)s2)cc1,inactive
9,COc1ccc(C/C(O)=C(\C#N)c2nc3ccccc3[nH]2)cc1OC,inactive
10,O=S(=O)(NCc1cccc(Br)c1)c1ccc(-c2cc(C(F)(F)F)on2)s1,"inconclusive: 0.112 µM [inhibitor, full curve, poor fit]"
11,COC(=O)c1sccc1S(=O)(=O)N(CC(=O)NCc1ccc(C)cc1)c1ccc(Cl)cc1,inactive
12,COc1ccc(C(=O)Nc2ccc3nc(SCC(=O)N4CCCc5ccccc54)sc3c2)cc1,"inconclusive: 3.98 µM [inhibitor, single point]"
13,COc1ccccc1COCC(O)CN1CCCCC1CO (centres undefined),inactive
14,COc1ccc(CC(=O)Nc2oc(-c3ccccc3)c(-c3ccccc3)c2C#N)cc1OC,"inconclusive: 35.5 µM [inhibitor, single point]"
15,OCCNc1nc(Nc2ccc(Cl)c(Cl)c2)nc2ccccc12,active: 11.2 µM
16,O=C(NC1CCCc2ccccc21)C1CCN(c2c3c(nc4ncnn24)CCC3)CC1 (centres undefined),inactive
17,Cc1ccccc1NC(=O)CSC1=Nc2ccccc2C2=NC(CCC(=O)NCc3ccccc3)C(=O)N12 (centres undefined),inactive
18,CCCCOC(=O)C(C)Nc1n[nH]c(=S)[nH]c1=O (centres undefined),"inconclusive: 6.31 µM [inhibitor, single point]"
19,N#CC(C#N)=C1C=CC=CN1/C(=C\c1ccco1)C(=O)c1ccc(-c2ccccc2)cc1,active: 7.08 µM
20,COC(=O)CSc1nc(N)c(C#N)c(-c2ccco2)c1C#N,"inconclusive: 5.62 µM [inhibitor, full curve, poor fit]"
21,Cc1ccc(-n2[nH]c(C)c(C=Nc3ccc4[nH]c(=O)[nH]c4c3)c2=O)cc1C,inactive
22,O=C(/C=C/c1ccco1)Nc1ccc(Cl)c(S(=O)(=O)N2CCOCC2)c1,"inconclusive: 14.1 µM [inhibitor, partial curve, poor fit]"
23,N#Cc1nc(Cc2cccc3ccccc23)oc1NCCCn1ccnc1,"inconclusive: 22.4 µM [inhibitor, single point]"

row,Compound,Potency
1,CC(C)(C)OC(=O)N1CCC[C@H]1c1nnc(SC/C=C/c2ccccc2)o1,"inconclusive: 35.5 µM [inhibitor, single point]"
2,CC(C)Cn1cnc2c(Sc3c([N+](=O)[O-])ncn3C)nc(N)nc21,"inconclusive: 35.5 µM [inhibitor, partial curve, poor fit]"
3,C=CCn1c(-c2ccccc2OCC)n[nH]c1=S,"inconclusive: 22.4 µM [inhibitor, single point]"
4,O=C1c2c(O)cc(O)cc2O[C@@]12c1c(cc(O)c3c1O[C@H](c1ccc(O)cc1)[C@@H](O)C3)O[C@@H]2c1ccc(O)cc1,"inconclusive: 4.47 µM [inhibitor, full curve, poor fit]"
5,O=C(C[N+]12CCCc3cccc(c31)CCC2)c1ccc2ccccc2c1,inactive
6,CCC(C(=O)NC1CCCC1)N(Cc1ccc2c(c1)OCO2)C(=O)c1snc(C(N)=O)c1N (centres undefined),inactive
7,COc1ccc(S(=O)(=O)NCCc2csc(-c3ccc(F)cc3)n2)cc1,"inconclusive: 7.94 µM [inhibitor, full curve, poor fit]"
8,Cc1cc(C(=O)Nn2c(-c3ccc(Br)cc3)nc3ccccc3c2=O)ccc1[N+](=O)[O-],active: 12.6 µM
9,Cc1cc(C)c(OCCCCN2CCC(C)CC2)c(Br)c1,inactive
10,COCCNC(=S)N/N=C(\C)c1ccccc1O,active: 5.62 µM
11,CCN(CC)S(=O)(=O)c1cccc(-c2nn(-c3ccccc3)cc2/C=C(\C#N)C(=O)NCc2ccco2)c1,"inconclusive: 3.98 µM [inhibitor, single point]"
12,O=C(C/C=N\OCc1ccc([N+](=O)[O-])cc1)Nc1ccccc1,inactive
13,CS(=O)(=O)N1CCN(C(=O)Cc2ccc([N+](=O)[O-])cc2)CC1,inactive
14,Cc1c(C(=O)NCc2cccc(Cl)c2)sc(=O)n1Cc1ccc(F)cc1,"inconclusive: 25.1 µM [inhibitor, single point]"
15,O=C1CN(C(=O)c2ccc(Br)o2)C(c2ccccc2)c2cc(Br)ccc2N1 (centres undefined),"inconclusive: 25.1 µM [inhibitor, single point]"
16,COc1cc(/C=N/NC(=O)COc2cc(C)cc(C)c2)ccc1OS(=O)(=O)c1ccc(C)cc1,"inconclusive: 3.98 µM [inhibitor, full curve]"
17,C#CCOCCOCCOCCNc1nc(N2CCN(C(=O)CCCCCCCCCCNC(=O)[C@@H](CCSC)n3cc(CCO)nn3)CC2)nc(N2CCN(C(=O)CCCCCCCCCCNC(=O)[C@H]([C@@H](C)CC)n3cc(CCCCCN)nn3)CC2)n1,"inconclusive: 35.5 µM [inhibitor, single point]"
18,CCCN(C(=O)CCc1nc(-c2ccccc2F)no1)c1ccc(CC)cc1,"inconclusive: 11.2 µM [inhibitor, single point]"
19,COc1ccc(CC(=O)NCc2nc3cccnc3n2Cc2ccc(F)cc2)cc1OC,inactive
20,Cc1ccc(C)c(N2CCN(C(=O)c3ccc(CS(=O)(=O)c4ccc(Br)cc4)o3)CC2)c1,"inconclusive: 25.1 µM [inhibitor, single point]"
21,Cc1cc2nc(-c3ccc(SCC(=O)N4CCc5ccccc54)nc3)[nH]c2cc1C,"inconclusive: 5.62 µM [inhibitor, single point]"
22,CCc1nc(SCC(=O)Nc2ccc(N(C)C)cc2)c2ccccc2n1,inactive
23,O=C1CNC(=S)N1CCCc1ccccc1,inactive

row,Compound,Potency
1,COc1cccc(/C=N/NC(=O)CSc2ccccc2C)c1O,"inconclusive: 6.31 µM [inhibitor, full curve]"
2,CN(CC(=O)Nc1cccc(C(F)(F)F)c1)S(=O)(=O)c1ccc2[nH]c3c(c2c1)CCCC3,"inconclusive: 14.1 µM [inhibitor, partial curve, poor fit]"
3,Cc1ccc(CNC(=O)c2c3c(nc4ccccc24)C(=O)N(C2CCCCC2)C3)cc1,inactive
4,CCc1nnc(NS(=O)(=O)c2ccc(N/C=C\C(=O)c3cccc4ccccc34)cc2)s1,"inconclusive: 14.1 µM [inhibitor, single point]"
5,Cc1ccccc1NC1=NCC(c2ccc([N+](=O)[O-])cc2)S1 (centres undefined),active: 4.47 µM
6,CCN(CC)c1ccc(N=Cc2c(C)[nH]c3ccccc23)cc1,active: 11.2 µM
7,COc1ccccc1COCC(O)CN(Cc1ccco1)Cc1ccccc1O (centres undefined),inactive
8,CC(C)Oc1ccc(S(=O)(=O)N2CCCCC2)cc1NC(=O)C1CCC1,"inconclusive: 12.6 µM [inhibitor, single point]"
9,Cc1nn(C)c(C)c1S(=O)(=O)NC1CCCC1,inactive
10,Cc1cccc(NC(=S)NC2CC3C=CC2C3)c1 (centres undefined),inactive
11,Cc1ccc(S(=O)(=O)N(C)C)cc1NC(=O)COC(=O)C1CC(=O)N(c2ccc3c(c2)OCCO3)C1 (centres undefined),inactive
12,CC(Sc1nc(-c2ccc(F)cc2)cs1)C(=O)N1c2ccccc2CC1C (centres undefined),"inconclusive: 35.5 µM [inhibitor, single point]"
13,COc1cccc(/C=N/NC(=O)CNC(=O)CCc2ccccc2)c1O,"inconclusive: 10 µM [inhibitor, partial curve, poor fit]"
14,Cc1ccc(C2(c3noc(CN4CCC(c5ccncc5)CC4)n3)CCCC2)cc1,"inconclusive: 12.6 µM [inhibitor, single point]"
15,CC(C)N1C(=O)/C(=C\c2nc3ccccc3c(=O)[nH]2)c2ccccc21,"inconclusive: 35.5 µM [inhibitor, single point]"
16,CC(=O)Oc1cccc(/C=c2\sc3nc(-c4ccco4)nn3c2=O)c1,"inconclusive: 7.08 µM [inhibitor, full curve, poor fit]"
17,CN(C(=O)c1cccc(NC(=O)Cc2cccc(NC(=O)C3CCCN(C(=O)CCc4ccccc4)C3)c2)c1)C1CCC1 (centres undefined),"inconclusive: 4.47 µM [inhibitor, full curve]"
18,COc1cc(C)c(NC(C)C(=O)c2c(C)[nH]c3ccccc23)cc1OC (centres undefined),inactive
19,CCn1c(CNC(=O)COc2ccc(C(C)C)cc2)nnc1SCC(=O)Nc1ccccc1,"inconclusive: 35.5 µM [inhibitor, single point]"
20,CC1(C)CC(n2c(NCCO)nc3c(c2=O)C2(CCCC2)Cc2ccccc2-3)CCO1 (centres undefined),"inconclusive: 28.2 µM [inhibitor, single point]"
21,O=C(Nc1ccccc1)N1CCSc2cc(Cl)ccc21,inactive
22,Cc1ccc(-n2ncc(C(=O)NCCN3CCc4ccccc4C3)c2C2CCN(C(=O)OC(C)(C)C)CC2)cc1,"inconclusive: 3.16 µM [inhibitor, partial curve, poor fit]"
23,C[C@@H]1CN([C@@H](C)CO)C(=O)c2cc(Br)cnc2O[C@H]1CN(C)Cc1cccnc1,inactive
